# Source: PubChem BioAssay AID938 (National Center for Advancing Translational Sciences (NCATS), 2007)
# The campaign covered roughly 73,000 compounds. About 1,800 (2.5%) were called active. Another 13% or so got no clear call; they are omitted. The call rests on the fitted dose curve; in most records, active means well fitted activation curve with a large enough effect; inconclusive means small, poorly fitted or top-dose-only effect; inactive means no such curve, though single readings can be large or run the other way. The list shows a part of the results, in another mix than the full data. The source holds several records for some structures; these can differ, active in one and inactive in another.
# Test: qHTS Assay for Agonists of the Thyroid Stimulating Hormone Receptor: Activators of Intracellular cAMP Concentrations in Parental HEK 293; further: nearly all actives have a fitted effect of over 55% in size; on activation: % of control where 0% means no effect
# Conditions: parental HEK293 CNG cAMP sensor, membrane potential fluorescence; series mostly up to 57.1 µM; activation: at the top concentration
# Text: NIH Chemical Genomics Center [NCGC]
# NIH Molecular Libraries Screening Centers Network [MLSCN]
# PI Name: Dr. Marvin Gershengorn
# This cell based assay utilized a cyclic nucleotide gated ion channel (CNG) as a biosensor for cAMP induction. HEK 293 cells stably expressing the modified CNG were purchased from BD biosciences (http://www.atto.com/products/actone/features_benefits.shtml) . Stimulation of cAMP production causes the CNG to open and subsequent membrane depolarization to occur. A fluorescent membrane potential dye (BD biosciences) was utilized to detect cAMP stimulation in cells.
# The cells were maintained in DMEM medium (Invitrogen) containing 10 % FBS (Hyclone), 100 units/ml Penicillin, 100 ug/ml Streptomycin (Invitrogen), and 250 ug/ml Geneticin (Invitrogen) and 1 ug/ml Puromycin (Invitrogen) at 37C in 5% CO2. This assay was used as a counterscreen to "qHTS Assay for Agonists of the Thyroid Stimulating Hormone Receptor", to control for compounds signaling through endogenous receptors and other targets of HEK 293 cells.
# NCGC Assay Protocol Summary:
# High Throughput Screening. Freshly passaged cells were dispensed into 1536-well assay plates at 4 ul/well in DMEM containing phenol red (Invitrogen), 10% FCS (Hyclone), and 100 units/ml Penicillin, 100 ug/ml Streptomycin (Invitrogen) and incubated at 37 C with 5% CO2 for 20 to 36 hrs before the robotic screening. The screen was initiated by addition of 4 ul/well membrane potential dye containing 100 uM RO 20-1724 (Sigma Aldrich), followed by 60 min incubation at room temperature to allow for dye equilibration across the cell membrane. 23 nl/well compound or control was then added to the assay plates, which were incubated for additional 30 min before reading a Envision fluorescence plate reader (Perkin Elmer) in bottom-read mode for fluorescence intensity (emission at 590 nm).
# Keywords: cAMP, CNG Ion Channel, quantitative high throughput screening, qHTS, HTS, probe identification, CNG, cAMP, cyclic nucleotide gated ion channel PubChem
# Potency means the concentration at half of the fitted maximal effect.
Structure (SMILES),activation,Potency
O=[N+]([O-])c1cccc(CCl)c1,inactive: -31.7%,–
Cc1ccc([N+](=O)[O-])cc1N,inactive: -16.8%,–
CCN(CC)CCO,inactive: -47.9%,–
Clc1ccc(C(Cl)(Cl)Cl)c(Cl)c1,inactive: 52.3%,–
CN1CCN(C(=O)O[C@@H]2c3nccnc3C(=O)N2c2ccc(Cl)cn2)CC1,inactive: 4.85%,–
C[N+](C)(C)CC#CCN1CCCC1=O,inactive: 10.6%,–
Nc1ccc(Sc2ccc(N)cc2)cc1,inactive: 13.4%,–
Clc1ccccc1Cl,inactive: -44.7%,–
O=C(O)C(Cl)(Cl)Cl,–,inactive
CCCCCl,inactive: 11.1%,–
CC[C@@H](CO)NC(=O)[C@H]1C=C2c3cccc4[nH]cc(c34)C[C@H]2N(C)C1,inactive: -1.2%,–
CC(C)CCNC(=O)c1c(N)n(CC2CCCO2)c2nc3ccccc3nc12 (configuration not stated),inactive: -49.9%,–
C=CC(=O)OCC(C)C,inactive: -1.33%,–
O=C(O)CCCc1ccc(N(CCCl)CCCl)cc1,–,inactive
CN1C(=O)CCS(=O)(=O)[C@H]1c1ccc(Cl)cc1,inactive: 2.34%,–
CCCCOC(=O)c1ccccc1C(=O)OCc1ccccc1,–,active: 15.8 µM
c1nc[nH]n1,inactive: -16.1%,–
CCOC(=O)c1ccccc1C(=O)OCC,inactive: 14.1%,–
NC(N)=NOCC[C@H](N)C(=O)O,–,inactive
CCCCC#N,inactive: 8.65%,–
CN1CCc2cc3c(cc2[C@@H]1[C@@H]1OC(=O)c2c1ccc1c2OCO1)OCO3,–,inactive
C=C[C@@H]1CN2CC[C@H]1C[C@H]2[C@H](O)c1ccnc2ccccc12,inactive: -6.49% [at 11.4 µM],–

Structure (SMILES),activation,Potency
O=[N+]([O-])c1c(Cl)c(Cl)cc(Cl)c1Cl,inactive: 7.7%,–
OC1(c2ccc(Cl)cc2)CCN(Cc2c[nH]c3ccccc23)CC1,inactive: 24.5%,–
CCN1C(=O)/C(=C2\C=Cc3ccccc3N2CC)OC1=S,inactive: -65.6%,–
CC(C)(C)OOC(C)(C)C,inactive: 30.3%,–
OC(c1ccc(Cl)cc1)(c1ccc(Cl)cc1)C(Cl)(Cl)Cl,inactive: -7.02%,–
O=[N+]([O-])c1ccccc1CCl,inactive: 18.3%,–
CC(C)c1ccc2c(c1)CC[C@H]1[C@](C)(CN)CCC[C@]21C,inactive: -55.3%,–
C/C(O)=C(/C#N)C(=O)Nc1cc(Br)ccc1Br,inactive: 26.7%,–
Cc1cccc(N2CCc3c2nc2ccccc2c3N)c1,–,inactive
c1cc2n(c1)-c1c(ccc3c1OCO3)CNC2c1ccc2c(c1)OCO2 (configuration not stated),inactive: -42.6%,–
c1ccc2cc3c(cc2c1)-c1cccc2cccc-3c12,inactive: 9.08%,–
CCOP(=O)(OCC)OCC,inactive: -25.6%,–
Cc1cc(-c2ccc(N)c(C)c2)ccc1N,inactive: -24.7%,–
CSc1nc2ccccc2n1C(=O)Oc1ccccc1,–,active: 25.1 µM
CC(C)C#N,inactive: -4.61%,–
CN(C)C(=O)Nc1ccc(Cl)cc1,inactive: -19.8%,–
NCc1cc(=O)[nH]o1,inactive: 3.31%,–
CCCN(CCC)[C@@H]1CCc2cccc(O)c2C1,–,inactive
CCN(CC)N=O,inactive: -19.6%,–
ClC=C(Cl)Cl,inactive: -20.6%,–
CCCCC(CC)COC(=O)CCCCC(=O)OCC(CC)CCCC (configuration not stated),inactive: -21.7%,–
CC(C)NC[C@@H](O)COc1cccc2[nH]ccc12,–,inactive

Structure (SMILES),activation,Potency
NCCc1c[nH]c2ccc(O)cc12,inactive: -4.88% [at 25.6 µM],–
O=c1[nH]cc(F)c(=O)[nH]1,inactive: 2.22%,–
CCOCCOC(C)=O,inactive: 1.39%,–
[N-]=[N+]=[N-],inactive: -3.35%,–
COc1ccc(CNC(=O)/C=C\c2ccc3[nH]cc(CCN(C)C)c3c2)cc1,inactive: 18.2%,–
CN=C(NC#N)NCCSCc1nc[nH]c1C,–,inactive
Cc1cccc(C)c1NC1=NCCCS1,–,inactive
C=CC(N)=O,inactive: 10.7%,–
Nc1ccccc1,inactive: 33.1%,–
Nc1ccc(-c2ccc(N)c(Cl)c2)cc1Cl,inactive: -38.3%,–
CN1CCN(C(=O)OC2c3nccnc3C(=O)N2c2ccc(Cl)cn2)CC1 (configuration not stated),inactive: 1.83%,–
Nc1cc(Cl)ccc1Cl,inactive: 0.0527%,–
c1ccccc1,inactive: 12.5%,–
C[C@]12CC[C@H](O)C[C@@H]1CC[C@H]1[C@H]2CC[C@]2(C)[C@H](C(=O)CO)CC[C@@H]12,inactive: 3.98%,–
COS(C)(=O)=O,inactive: -27.8%,–
CC[N+](C)(C)c1cccc(O)c1,inactive: -3.61% [at 25.6 µM],–
CC12CCC(=O)C=C1CCC1C2CCC2(C)C(O)CCC12 (configuration not stated),inactive: 5.22%,–
C=CCO,inactive: -2.58%,–
c1ccc2c(c1)[I+]c1ccccc1-2,inactive: 20.4%,–
O=C(c1cc2ccccn2n1)N1CCN(Cc2ccccc2)CC1,inactive: -40.9%,–
CC(Cl)(Cl)Cl,inactive: -17.3%,–
N#CCCCl,–,inactive

Structure (SMILES),activation,Potency
CC(=O)NNc1ccccc1,inactive: 25.1%,–
COc1ccc2c(c1)C13CCCC[C@@H]1C(C2)N(C)CC3 (some centres not stated),inactive: 9.94% [at 25.6 µM],–
CC1(C)Cc2c(sc3c2C(=O)NC(c2cccnc2)N3)CO1 (configuration not stated),inactive: -33.3%,–
CC[C@]1(C2=NCCN2)Cc2ccccc2O1,inactive: 18.9%,–
Fc1ccc(C(OCCN2CCN(CCCc3ccccc3)CC2)c2ccc(F)cc2)cc1,–,inactive
Cc1c(OCC(F)(F)F)ccnc1CS(=O)c1nc2ccccc2[nH]1 (configuration not stated),inactive: 6.36% [at 25.6 µM],–
CC(C)(C)n1c(O)c(C=Nc2ccc3c(c2)CCC3)c(=O)[nH]c1=O,–,active: 25.1 µM
COc1cc2c(cc1OC)[C@H](C)NCC2,inactive: -2.39%,–
NNC(N)=O,inactive: -20.7%,–
COc1ccc(Cc2nccc3cc(OC)c(OC)cc23)cc1OC,inactive: 22% [at 25.6 µM],–
Nc1ccc(Cl)c(Cl)c1,inactive: -3.24%,–
Cc1cccc(CN(C)C)c1OC(=O)N(C)C,inactive: -54.7%,–
C[C@]12N[C@H](Cc3ccccc31)c1ccccc12,inactive: 11.5%,–
O[C@@H]1CCCC[C@H]1N1CCC(c2ccccc2)CC1,–,inactive
CNC(=O)O/N=C/C(C)(C)S(C)=O (configuration not stated),inactive: -28.3%,–
CSSC,inactive: 8.52%,–
C=CC(=O)OCC(CC)CCCC (configuration not stated),inactive: 2.16%,–
CN(C)c1ccc(N=Nc2ccccc2)cc1,inactive: -27%,–
Cc1coc2c1CCC(C)C2 (configuration not stated),inactive: -5.99%,–
Oc1ccc2c3c1O[C@H]1c4c(c5ccccc5n4Cc4ccccc4)C[C@]4(O)[C@H](C2)N(CC2CC2)CC[C@@]314,inactive: -32.2%,–
N[C@H](CCCCCP(=O)(O)O)C(=O)O,–,inactive
